One test has as its target T1, MsCANX_His (mouse, UniProt P35564).
T1 construct: recombinant, C-terminal polyhistidine tag; also called recombinant mouse CANX protein with a polyhistidine tag at the C-terminus
T1 sequence (antigen, looked up): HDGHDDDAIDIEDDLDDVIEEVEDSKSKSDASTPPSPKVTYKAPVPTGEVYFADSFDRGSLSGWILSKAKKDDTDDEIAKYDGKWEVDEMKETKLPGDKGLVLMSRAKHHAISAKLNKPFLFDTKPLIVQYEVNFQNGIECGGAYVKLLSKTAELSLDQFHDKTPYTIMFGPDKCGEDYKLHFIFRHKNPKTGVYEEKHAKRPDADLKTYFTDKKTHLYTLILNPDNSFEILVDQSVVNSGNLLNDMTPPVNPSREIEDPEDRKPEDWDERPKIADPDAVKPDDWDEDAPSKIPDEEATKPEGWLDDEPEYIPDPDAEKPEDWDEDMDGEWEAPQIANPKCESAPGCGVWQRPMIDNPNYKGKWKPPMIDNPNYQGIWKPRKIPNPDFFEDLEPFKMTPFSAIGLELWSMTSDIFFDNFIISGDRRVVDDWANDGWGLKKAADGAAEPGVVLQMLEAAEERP
The test is described as follows: BLI, IgG1 on AHC biosensor, MsCANX_His 200-0.39 nM. As to the method: The binding affinity of the 15 antibody clones to recombinant mouse CANX protein with a polyhistidine tag at the C-terminus (MsCANX_His) was measured by Bio-Layer Interferometry. The 15 antibody clones were loaded and captured by the anti-human IgG Fc capture (AHC) biosensors (FIG. 6). The biosensors were dipped into a range of MsCANX_His protein concentrations (from 200 nM to 0.39 nM, in 2-fold dilutions), the kinetics of the association and dissociation were then recorded.

Test [1] deals with T2, recombinant human CNX protein with a polyhistidine tag at the C-terminus (HuCANX_His) (human, UniProt P27824 21-481, limits assumed).
T2 construct: also called HuCANX with a His tag
T2 sequence (looked up): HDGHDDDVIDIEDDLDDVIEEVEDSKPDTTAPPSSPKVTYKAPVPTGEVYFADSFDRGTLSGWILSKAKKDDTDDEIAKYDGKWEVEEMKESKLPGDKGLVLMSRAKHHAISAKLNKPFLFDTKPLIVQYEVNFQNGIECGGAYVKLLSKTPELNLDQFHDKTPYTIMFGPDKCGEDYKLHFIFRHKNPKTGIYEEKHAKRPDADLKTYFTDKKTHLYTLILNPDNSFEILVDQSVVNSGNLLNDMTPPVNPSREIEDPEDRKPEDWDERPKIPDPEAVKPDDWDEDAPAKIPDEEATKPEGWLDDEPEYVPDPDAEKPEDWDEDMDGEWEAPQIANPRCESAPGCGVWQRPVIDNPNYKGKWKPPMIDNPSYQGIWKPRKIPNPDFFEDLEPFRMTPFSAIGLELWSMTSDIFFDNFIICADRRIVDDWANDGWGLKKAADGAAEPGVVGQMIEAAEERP
Put plainly: ELISA, IgG1 coated 10 nM, His-tagged antigen titrated (EC50 is of the antigen), anti-His-HRP; plateau only about 0.7. As to the method:
The 15 antibody clones were tested using ELISA against biotinylated recombinant HuCANX_hFc protein to assess binding avidity for the target, with an irrelevant IgG1 used as a negative control antibody. In brief, the 15 antibody clones were coated at 2 μg/ml onto the 96-well ELISA plates overnight at 4° C. After blocking with casein for 2 hours, the biotinylated antigen was added at different concentrations (3 times serial dilutions) and incubated for 1 hour. The wells were then washed with PBST and detected by HRP conjugated streptavidin. […] antibody clones were also tested in ELISA against recombinant HuCANX_His protein to assess binding affinity for the target, with an irrelevant IgG1 used as a negative control antibody. In brief, the 15 antibody clones were coated at 10 nM onto the 96-well ELISA plates overnight at 4° C. After blocking with casein for 2 hours, the antigen was added at different concentrations (3 times serial dilutions) and incubated for 1 hour. The wells were then washed with PBST and detected by HRP conjugated anti-His tag antibody.

B1: 3F8 IgG1 (antibody)
heavy: EVQLVQSGAEVKKPGASVKVSCKASGYTFTSYAMHWVRQAPGQRLEWMGWINAGNGNTKYSQKFQGRVTITRDTSASTAYMELSSLRSEDTAVYYCARVLHVLRYFDWPGAFDIWGQGTTVTVSS[left out - human IgG1 constant region]
light: QSVLTQPPSASGTPGQRVTISCSGSSSNIGTNYVYWYQQLPGTAPKLLIYINDQRPSGVPDRFSGSKSGTSASLALSGLRSEDEADYYCAAWDDSLSGLVFGGGTKLTVLGQPKAAPSVTLFPPSSEELQANKATLVCLISDFYPGAVTVAWKADSSPVKAGVETTTPSKQSNNKYAASSYLSLTPEQWKSHKSYSCQVTHEGSTVEKTVAPAECS
Take B1: in the test with MsCANX_His, the Kd came to 188 nM, the off-rate (koff) was found to be 0.0465 s⁻¹ and the kon amounted to 247000 M⁻¹ s⁻¹. Besides, the half-maximal effective concentration (EC50) in test [1] is 22.5 nM.

Values taken from US20260250378A1 (AGENCY FOR SCIENCE TECHNOLOGY AND RESEARCH, published 2026).
